# Among all 370,000 compounds or so, about 150 (0.041%) were called active. The shares of active, inactive and inconclusive entries below differ from those in the screen. Calls follow the shape of the dose curve; as a rule, active = well fitted inhibition curve with a large enough effect; inconclusive = small, poorly fitted or top-dose-only effect; inactive = flat fitted curve, though single readings scatter. No potency is given beside an inconclusive call; the fits are too rough.
# Target: Beta-lactamase (Escherichia coli (strain K12)) (UniProt P00811)
# Test: qHTS Inhibitors of AmpC Beta-Lactamase (assay with detergent); also: nearly all actives have a fitted effect of over 25% in size
# Details: AmpC hydrolysis of nitrocefin, absorbance 480 nm, 0.01% Triton; series mostly up to 114 µM
# Outline: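 AmpC (5.3 nM in the dispensed reagent) in 20 mM phosphate pH 7.0 with 0.01% (detergent screen) or 0.0001% Triton X-100 was preincubated with compounds for 15 min at room temperature. Nitrocefin was then added from an 800 uM solution, and hydrolysis was followed at 480 nm.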
# Potency is read from the fitted curve at half-maximal effect; tags tell the direction and shape of the fitted curve.
# Chain of UniProt P00811 (P00811 whole entry, looked up): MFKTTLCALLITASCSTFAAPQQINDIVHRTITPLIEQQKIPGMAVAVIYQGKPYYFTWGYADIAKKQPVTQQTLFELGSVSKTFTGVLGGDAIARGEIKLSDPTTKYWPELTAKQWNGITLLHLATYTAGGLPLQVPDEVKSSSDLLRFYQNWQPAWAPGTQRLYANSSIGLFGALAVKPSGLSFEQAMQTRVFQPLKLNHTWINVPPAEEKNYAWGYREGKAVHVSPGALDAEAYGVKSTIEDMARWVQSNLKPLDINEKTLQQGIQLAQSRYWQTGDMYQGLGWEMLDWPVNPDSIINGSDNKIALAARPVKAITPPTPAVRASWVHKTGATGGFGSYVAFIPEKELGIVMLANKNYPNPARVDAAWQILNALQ
row,SMILES,Potency
1,CCC(=O)Nc1cc2nn(-c3ccccc3)nc2cc1Cl,inactive
2,COc1ccccc1CNC(=O)c1ccc(S(=O)(=O)N(C)C)cc1,"inconclusive [inhibitor, full curve, poor fit]"
3,CCN(CC(=O)Nc1c(F)cccc1F)C(=O)CNC(=O)c1ccco1,"inconclusive [inhibitor, partial curve, poor fit]"
4,CC(=O)Nc1cccc(-c2nn[nH]n2)c1,"inconclusive [inhibitor, single point]"
5,CC1C(=O)NN=C1C(=O)N/N=C/c1ccco1 (stereo not drawn),inactive
6,O=C(O)c1cc(S(=O)(=O)Nc2cccc3ccccc23)c(Cl)cc1Cl,"inconclusive [inhibitor, partial curve, poor fit]"
7,Cc1ccc(CNC(=O)CCSCc2ccc(C)cc2)cc1,"inconclusive [inhibitor, partial curve, poor fit]"
8,O=C(c1ccccc1-c1ccccc1)N1CCCC1,"inconclusive [inhibitor, full curve, poor fit]"
9,Cc1ccc(S(=O)(=O)NCC(=O)N2CCCC2)cc1,"inconclusive [inhibitor, full curve, poor fit]"
10,Cc1ccnc(N2CCC(C(=O)NNC(=O)COc3cccc4ccccc34)CC2)n1,inactive
11,COc1ccc(-c2ccc(NS(=O)(=O)c3ccc(F)c(C(F)(F)F)c3)cc2)nn1,inactive
12,N=c1n(Cc2ccc(Cl)cc2)c2ccccc2n1CC(O)COc1ccccc1 (stereo not drawn),"inconclusive [inhibitor, full curve, poor fit]"
13,Clc1cc(Br)ccc1OCCOCCN1CCOCC1,"inconclusive [inhibitor, single point]"
14,O=C(C1CCCN(S(=O)(=O)c2cccc3nsnc23)C1)N1CCN(c2ccccn2)CC1 (stereo not drawn),inactive
15,O=C(OCCN1C(=O)c2ccccc2C1=O)c1ccccc1,inactive
16,CCOc1ccc(N=C2NC(=O)/C(=C/C(=O)OC)S2)cc1,"inconclusive [inhibitor, full curve]"
17,C=C(C)Cc1c(C)nc(-c2ccccc2)[nH]c1=O,"inconclusive [inhibitor, full curve, poor fit]"
18,Cc1ccccc1NC(=O)CCN1CCN(C/C=C/c2ccccc2)CC1,"inconclusive [inhibitor, partial curve]"
19,Cc1cc(NC(=O)C2CCN(S(=O)(=O)Cc3ccccc3)CC2)ccc1-n1cnnn1,"inconclusive [inhibitor, full curve, poor fit]"
20,COc1ccc(NC(=O)CSc2ccccc2)cc1S(=O)(=O)N1CCCCC1,"inconclusive [inhibitor, full curve, poor fit]"
21,O=C(O)c1ccc(NC2CC(=O)N(Cc3ccccc3)C2=O)cc1 (stereo not drawn),inactive
22,CN(CC(=O)Nc1ccc(Cl)c(C(F)(F)F)c1)C(=O)CCN1C(=O)C2CC=CCC2C1=O (stereo not drawn),"inconclusive [inhibitor, full curve, poor fit]"
23,CCc1noc(C)c1C(=O)N(C)CC(=O)Nc1ccccc1Br,"inconclusive [inhibitor, full curve, poor fit]"

row,SMILES,Potency
1,Cn1c(=O)oc2cc(S(=O)(=O)N3CCCC(C(=O)Nc4ccccn4)C3)ccc21 (stereo not drawn),"inconclusive [inhibitor, full curve, poor fit]"
2,N#Cc1ccccc1NC(=O)c1cc(=O)c2ccccc2o1,"inconclusive [inhibitor, single point]"
3,O=C(COC(=O)c1ccc(NS(=O)(=O)c2cccs2)cc1)NCc1ccco1,inactive
4,CC12CCC(C(=O)Nc3ccccc3)(C(Br)C1=O)C2(C)C (stereo not drawn),"inconclusive [inhibitor, full curve, poor fit]"
5,Cc1nnc(-c2ccco2)c2cn(-c3cccc(Br)c3)nc12,"inconclusive [inhibitor, full curve, poor fit]"
6,Fc1cccc(CNc2ncnc3ccc(-c4ccccc4Cl)cc23)c1,"inconclusive [inhibitor, partial curve, poor fit]"
7,N#CC1=C(N)OC2=C(C(=O)CCC2)C1c1ccc2c(c1)OCO2 (stereo not drawn),"inconclusive [inhibitor, full curve, poor fit]"
8,COc1cccc(NC(=O)C/C(C)=N/NC(=O)c2ccccc2Cl)c1,inactive
9,Cc1nc(Nc2cc(F)ccc2C)c2nnn(Cc3ccccc3)c2n1,"inconclusive [inhibitor, partial curve]"
10,Nn1c(SCC(=O)Nc2nc3ccccc3s2)nncc1=O,"inconclusive [inhibitor, full curve, poor fit]"
11,O=C(CN1CCCc2ccccc21)N/N=C/c1c(O)ccc2ccccc12,inactive
12,Cc1ccc(SCc2nc3ccccc3n2CC(=O)Nc2ccc(Cl)cc2)cc1,"inconclusive [inhibitor, partial curve]"
13,CCN(CC)CCOc1ccc(/C(=C(\Cl)c2ccccc2)c2ccccc2)cc1,"inconclusive [inhibitor, full curve, poor fit]"
14,CCOC(=O)C1=C(C)OC(N)=C(C#N)C1c1c(C)nn(-c2ccc(C)cc2)c1Cl (stereo not drawn),"inconclusive [inhibitor, full curve, poor fit]"
15,Cc1ccc(-c2nnn(CC(=O)N(CCO)C(C(=O)NC(C)(C)C)c3ccncc3)n2)cc1 (stereo not drawn),"inconclusive [inhibitor, partial curve]"
16,Cc1ccccc1C(=O)N/N=C/c1ccc([N+](=O)[O-])s1,"inconclusive [inhibitor, full curve, poor fit]"
17,Cc1cc(NC(=O)CSc2cn(CCNC(=O)c3ccc(Cl)cc3)c3ccccc23)no1,inactive
18,COc1cc(OC)c(NC2c3ccccc3C(=O)N2c2cc(C)ccn2)cc1Cl (stereo not drawn),"inconclusive [inhibitor, full curve, poor fit]"
19,CCCn1nc(C(=O)Nc2ccc3nc(N4CCOCC4)sc3c2)ccc1=O,inactive
20,CC(=O)c1cc2c(cc1NC(=O)Nc1cccc(Cl)c1)OCCO2,"inconclusive [inhibitor, partial curve]"
21,O=C(COC(=O)CNC(=O)c1ccccc1)Nc1nnc(-c2ccccc2)o1,inactive
22,COc1ccc(OC)c2sc(N3CCc4ccccc4C3)nc12,"inconclusive [inhibitor, single point]"
23,O=C(NCCOc1ccccc1)c1ccccc1Cl,inactive

row,SMILES,Potency
1,CCN1CCS/C1=C\C=C\C1=[N+](CC)CCS1,"inconclusive [inhibitor, partial curve, poor fit]"
2,Cc1ccccc1CSc1nc2nc(C)c(Cc3ccccc3)c(C)n2n1,inactive
3,c1ccc(SCc2nc3ccccc3[nH]2)cc1,"inconclusive [inhibitor, full curve]"
4,COc1ccc(C2=NOC3(CC(=O)N(c4ccc(F)cc4)C3=O)C2)c(OC)c1 (stereo not drawn),"inconclusive [inhibitor, full curve]"
5,CC(NC(=O)Nc1ccccc1Cl)c1ccc2c(c1)OCO2 (stereo not drawn),"inconclusive [inhibitor, full curve, poor fit]"
6,COc1cccc(N2CC(C(=O)Nc3nnc(SCC(=O)c4ccccc4)s3)CC2=O)c1 (stereo not drawn),"inconclusive [inhibitor, full curve, poor fit]"
7,S=C(NCc1ccncc1)NC1CCCC1,"inconclusive [inhibitor, single point]"
8,COc1ccc(CNC(=O)C2CC(c3ccccc3[N+](=O)[O-])=NO2)cc1 (stereo not drawn),inactive
9,CC(=O)/C(C(=N)N1CCN(c2cccc(Cl)c2)CC1)=C(\C)O,"inconclusive [inhibitor, full curve, poor fit]"
10,CC1CCN(C(=O)c2cc(Cl)ccc2NC(=O)c2ccco2)CC1,"inconclusive [inhibitor, full curve, poor fit]"
11,CCC(=O)Nc1ccc2nc(C3CC3)n(Cc3ccccc3)c(=O)c2c1,"inconclusive [inhibitor, full curve, poor fit]"
12,COc1ccc(S(=O)(=O)N2CCN(C3CC4CCC3C4)CC2)cc1 (stereo not drawn),inactive
13,Cc1nnc(-c2ccc(Cl)cc2)[nH]c1=O,inactive
14,Cc1nc(SCC(=O)O)c2oc3ccccc3c2n1,"inconclusive [inhibitor, partial curve, poor fit]"
15,CCc1ccccc1NC(=O)C1CCCN(c2nccc(C)n2)C1 (stereo not drawn),"inconclusive [inhibitor, full curve]"
16,CC(=O)Oc1ccc(Cl)cc1/C=C/c1ccc2ccccc2n1,inactive
17,Cc1ccc(NC(=O)COC(=O)c2ccc(S(=O)(=O)N3CCCC3)cc2)cc1,"inconclusive [inhibitor, single point]"
18,O=c1cc(CO)occ1OCc1ccccc1,inactive
19,Cc1ccc(S(=O)(=O)Nc2c(C)n(C)n(-c3ccccc3)c2=O)cc1,"inconclusive [inhibitor, partial curve]"
20,Cc1ccc(C2(C)NC(=O)N(CC(=O)Nc3ccc(S(=O)(=O)Nc4nccs4)cc3)C2=O)cc1 (stereo not drawn),"inconclusive [inhibitor, full curve, poor fit]"
21,CC1CN(Cc2cnc(Cl)s2)CC(C)O1 (stereo not drawn),"inconclusive [inhibitor, full curve, poor fit]"
22,Cn1c(O)c(C=NCCN2CCOCC2)c(=O)[nH]c1=S,"inconclusive [inhibitor, partial curve]"
